Reference: PubChem BioAssay AID2675 (National Center for Advancing Translational Sciences (NCATS), 2010)
The whole screen tested about 280,000 compounds, of which about 100 (0.036%) were called active. The shares of active, inactive and inconclusive entries below differ from those in the screen. Calls come from the whole dose curve; as a rule, active = well fitted inhibition curve with a large enough effect in the signal ratio, with a control signal flat (not every such curve was filed as active); inconclusive = small, poorly fitted or top-dose-only effect, or effect the other way, or a change in a side signal; inactive = no such curve, though single readings can be large or run the other way; the % refers to the signal ratio. Potencies beside an inconclusive call are fits to weak or partial responses and may not hold up. A note “side channel” means that the fit belongs to a control or component signal, not to the main read-out.

molecular target: Muscleblind-like protein 1 (Homo sapiens) (UniProt Q9NR56); assay: qHTS Assay for Inhibitors of MBNL1-poly(CUG) RNA binding; settings: TR-FRET MBNL1-His/biotin-(CUG)12 binding, 665/545 ratio; activity change, negative = inhibition: at 57.5 µM (top of the series)
Sequence of UniProt Q9NR56 (Q9NR56 whole entry, looked up): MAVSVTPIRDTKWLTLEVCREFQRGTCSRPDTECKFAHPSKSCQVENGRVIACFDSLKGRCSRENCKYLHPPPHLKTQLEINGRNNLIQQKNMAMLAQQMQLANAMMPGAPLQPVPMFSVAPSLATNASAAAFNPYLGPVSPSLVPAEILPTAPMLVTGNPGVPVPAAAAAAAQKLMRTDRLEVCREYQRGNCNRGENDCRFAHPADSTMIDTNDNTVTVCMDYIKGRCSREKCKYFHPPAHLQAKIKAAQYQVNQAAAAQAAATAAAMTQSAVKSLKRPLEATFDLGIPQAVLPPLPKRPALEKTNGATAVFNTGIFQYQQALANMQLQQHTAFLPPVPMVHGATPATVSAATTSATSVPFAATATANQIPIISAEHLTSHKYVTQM
Outline: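 Ratiometric TR-FRET (665 over 545 nm, excitation 340 nm) tracks disruption of MBNL1-His/biotin-(CUG)12 complex after 60 min at room temperature, with compounds at 92 nM to 58 uM final.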
% is set by controls: 0 for no effect and ±100 for the full control effect; potency is the fitted concentration of half-maximal effect; tags give direction and shape of the fitted curve or compound fluorescence and quenching.

**Q.** How did the Potency turn out when `Cn1c(=O)c(-c2cc(Br)ccc2N)nc2ccccc21` was run?
**A.** inconclusive: 25.1 µM [quencher, side channel, partial curve]

**Q.** With `CCOc1ccc(OCCSc2nc3ccccc3[nH]2)cc1` as the compound, how does the “activity change, negative = inhibition” value read?
**A.** inactive: -7.13%

**Q.** Which “activity change, negative = inhibition” value does the source give for `COc1ccc(C2(c3ccc(OC)cc3)NC(=O)N(CC(=O)Nc3ccc(OC(F)F)cc3)C2=O)cc1` here?
**A.** inactive: 2.99%

**Q.** Which Potency does the source give for `O=C(CSc1nnc(-c2cccs2)n1CC1CCCO1)c1cc2ccccc2o1` (stereo not drawn) here?
**A.** inconclusive: 20 µM [quencher, side channel, partial curve]

**Q.** How did the Potency turn out when `Cc1cc[n+](-c2nc3ccccc3nc2[N-]S(=O)(=O)c2ccccc2)cc1` was run?
**A.** inconclusive: 15.8 µM [activator, partial curve]

**Q.** `Cc1nn(CC(=O)NNC(=S)NCC2CCCO2)c(C)c1Br` (stereo not drawn) was tested. Which “activity change, negative = inhibition” value did it give?
**A.** inactive: -0.569%

**Q.** With `Nc1cc(-c2cccc([N+](=O)[O-])c2)[nH]n1` as the compound, how does the Potency read?
**A.** inconclusive: 11.2 µM [quencher, side channel, partial curve]

**Q.** For `Cc1nc2ccccc2cc1OCc1ccccc1`, which “activity change, negative = inhibition” value is on record?
**A.** inactive: 7.04%

**Q.** With `CS(=O)(=O)N1CCCC(C(=O)NCc2ccccc2Cl)C1` (stereo not drawn) as the compound, how does the “activity change, negative = inhibition” value read?
**A.** inactive: 3.93%

**Q.** Which Potency does the source give for `Cc1ccc(OCC(=O)N(C)CC(=O)Nc2ccc(F)cc2)c([N+](=O)[O-])n1` here?
**A.** inconclusive: 39.8 µM [quencher, single point]

**Q.** For `Cc1c(C(=O)c2ccc(F)cc2)c2ccccn2c1CCc1ccccn1`, which Potency is on record?
**A.** inconclusive: 15.8 µM [quencher, side channel, partial curve]

**Q.** How did the Potency turn out when `O=C1NC[C@H](Cc2ccc(O)cc2)N(CCc2cccc3ccccc23)C1=O` was run?
**A.** inconclusive: 141 µM [quencher, side channel, partial curve, poor fit]

**Q.** `COc1ccc(/C=C(\C#N)C(=O)OCC(=O)NCc2ccco2)cc1` was tested. Which Potency did it give?
**A.** inconclusive: 31.6 µM [quencher, side channel, partial curve]

**Q.** How did the Potency turn out when `CCOC(=O)c1nc(Nc2ccc(Nc3ccccc3)cc2)c2ccccc2n1` was run?
**A.** inconclusive: 11.2 µM [quencher, side channel, partial curve]

**Q.** How did the Potency turn out when `CCSc1nnc(NC(=O)C2CCCN(S(=O)(=O)c3cnc[nH]3)C2)s1` (stereo not drawn) was run?
**A.** inconclusive: 0.0891 µM [fluorescent, side channel, full curve, poor fit]

**Q.** With `Cc1ccc(OCc2ccccc2C)c([N+](=O)[O-])n1` as the compound, how does the Potency read?
**A.** inconclusive: 31.6 µM [quencher, side channel, single point]

**Q.** `CCN(/N=C/c1cccs1)c1cc(=O)n(C)c(=O)[nH]1` was tested. Which Potency did it give?
**A.** inconclusive: 3.98 µM [quencher, side channel, full curve]

**Q.** With `O=C(COC(=O)c1cc(-c2cccc(Br)c2)nc2ccccc12)NCC1CCCO1` (stereo not drawn) as the compound, how does the “activity change, negative = inhibition” value read?
**A.** inactive: 32.2%

**Q.** Which “activity change, negative = inhibition” value does the source give for `Cc1ccc(-n2c(Cc3ccccc3)nnc2SCC(=O)NNC(=O)Cc2ccccc2)cc1` here?
**A.** inactive: -7.67%

**Q.** With `O=C(NC1CCCCC1)c1ccc(-c2ccccc2[N+](=O)[O-])o1` as the compound, how does the Potency read?
**A.** inconclusive: 17.8 µM [quencher, side channel, partial curve]

**Q.** With `Cc1ccc(CN2C3CCCC2CC(NC(=O)c2ccc(C)cc2)C3)cc1` (stereo not drawn) as the compound, how does the “activity change, negative = inhibition” value read?
**A.** inactive: -1.49%

**Q.** How did the “activity change, negative = inhibition” value turn out when `Cc1ccccc1N1CCN(C2CCCN(C(=O)CCN3CCCO3)C2)CC1` (stereo not drawn) was run?
**A.** inactive: 0.658%

**Q.** How did the Potency turn out when `COc1ccc(/C=C(\NC(=O)c2ccc(Cl)cc2)C(=O)NCC2CCCO2)cc1OC` (stereo not drawn) was run?
**A.** inconclusive: 28.2 µM [quencher, side channel, single point]

**Q.** For `Cc1cccc(C(=O)N2CCCN(C(=O)c3cccc(C)c3)CC2)c1`, which Potency is on record?
**A.** inconclusive: 4.47 µM [quencher, side channel, single point]

**Q.** How did the Potency turn out when `Cc1ccc2nc3sc(C(=O)N4CCOCC4)c(N)c3cc2c1` was run?
**A.** inconclusive: 12.6 µM [quencher, side channel, partial curve]

**Q.** With `COc1cccc2cc(C(=O)c3ccccc3)oc12` as the compound, how does the Potency read?
**A.** inconclusive: 28.2 µM [quencher, single point]

**Q.** With `O=C(CCl)Nc1cc(SCC(O)CO)cc([N+](=O)[O-])c1` (stereo not drawn) as the compound, how does the Potency read?
**A.** inconclusive: 12.6 µM [quencher, side channel, partial curve]

**Q.** `CC(C)C(=O)Nc1ccc(C(=O)NNC(=S)NC(=O)c2ccccc2[N+](=O)[O-])cc1` was tested. Which Potency did it give?
**A.** inconclusive: 22.4 µM [quencher, side channel, single point]

**Q.** Which Potency does the source give for `O=C1c2ccccc2C(=O)N1Nc1ccc([N+](=O)[O-])cc1[N+](=O)[O-]` here?
**A.** inconclusive: 2.51 µM [quencher, side channel, full curve]

**Q.** `N#CC1=C(N)C(C#N)(C#N)C2(C(=O)Nc3ccccc32)C2CCCC=C12` (stereo not drawn) was tested. Which Potency did it give?
**A.** inconclusive: 28.2 µM [quencher, side channel, single point]

**Q.** `O=C(OCC(=O)c1ccc(Cl)s1)c1ccccn1` was tested. Which Potency did it give?
**A.** inconclusive: 15.8 µM [quencher, side channel, partial curve]

**Q.** Which “activity change, negative = inhibition” value does the source give for `CCNC(=S)N(Cc1ccco1)Cc1cc2cc(OCC)ccc2[nH]c1=O` here?
**A.** inactive: 9.51%

**Q.** How did the Potency turn out when `Cc1cc2nccc(-c3ccncc3)n2n1` was run?
**A.** inconclusive: 25.1 µM [quencher, side channel, partial curve]

**Q.** How did the Potency turn out when `CCS(=O)(=O)N1CCN(c2ccc(Cl)cc2[N+](=O)[O-])CC1` was run?
**A.** inconclusive: 11.2 µM [quencher, side channel, partial curve]

**Q.** For `Cc1cccc(Nc2ccc([N+](=O)[O-])cn2)c1`, which Potency is on record?
**A.** inconclusive: 11.2 µM [quencher, partial curve]

**Q.** Which Potency does the source give for `COc1ccccc1NC(=O)CSc1nnc2ccc(-c3cccnc3)nn12` here?
**A.** inconclusive: 22.4 µM [quencher, side channel, single point]

**Q.** How did the “activity change, negative = inhibition” value turn out when `Cc1ccc(S(=O)(=O)N(C(=O)c2ccncc2)c2ccc(OC(=O)c3ccncc3)c3ccccc23)cc1` was run?
**A.** inactive: 4.37%

**Q.** How did the Potency turn out when `COc1ccccc1-c1c(C(F)(F)F)oc2cc(OC(=O)c3ccc([N+](=O)[O-])cc3)ccc2c1=O` was run?
**A.** inconclusive: 17.8 µM [quencher, side channel, partial curve]

**Q.** With `CCC(=O)N1CCN(c2ccc(NC(=O)c3ccc([N+](=O)[O-])o3)cc2)CC1` as the compound, how does the Potency read?
**A.** inconclusive: 5.01 µM [quencher, side channel, full curve]

**Q.** With `O=C(Nc1cccc(-c2cn3cccnc3n2)c1)c1ccco1` as the compound, how does the Potency read?
**A.** inconclusive: 20 µM [quencher, side channel, partial curve]

**Q.** With `COc1cccc(N=Cc2c(O)n(-c3cccc(C)n3)c(=O)c3ccccc23)c1` as the compound, how does the Potency read?
**A.** inconclusive: 11.2 µM [quencher, partial curve]

**Q.** Which “activity change, negative = inhibition” value does the source give for `Cc1ccc(S(=O)(=O)N(C)c2ccc3ccccc3c2)cc1` here?
**A.** inactive: -1.53%

**Q.** `C=CCOn1c(C)c(C(C)=O)c2c3no[n+]([O-])c3ccc21` was tested. Which “activity change, negative = inhibition” value did it give?
**A.** inactive: 10.6%

**Q.** `O=C(Cn1nc(Cl)nc1Cl)c1ccc([N+](=O)[O-])cc1` was tested. Which Potency did it give?
**A.** inconclusive: 6.31 µM [quencher, side channel, partial curve]

**Q.** `Cc1nc2ccccc2c(=O)n1/N=C/c1cccs1` was tested. Which Potency did it give?
**A.** inconclusive: 35.5 µM [quencher, side channel, single point]

**Q.** How did the Potency turn out when `O=C(c1cc2ccccc2oc1=O)N(Cc1ccccc1)CC1CCCO1` (stereo not drawn) was run?
**A.** inconclusive: 8.91 µM [quencher, side channel, single point]

**Q.** How did the Potency turn out when `CCCN1CCN(CCCNC(=O)c2cc3c(s2)-c2ccccc2OC3)CC1` was run?
**A.** inconclusive: 25.1 µM [quencher, partial curve]

**Q.** `N#Cc1ccccc1NC(=S)Nc1ccc(F)cc1` was tested. Which “activity change, negative = inhibition” value did it give?
**A.** inactive: -1.41%

**Q.** For `COc1ccc(-c2nnn(CC(=O)N3CCOCC3)n2)cc1`, which “activity change, negative = inhibition” value is on record?
**A.** inactive: -5.29%

**Q.** For `CCn1c(N)c(C(=O)NCC2CCCO2)sc1=S` (stereo not drawn), which Potency is on record?
**A.** inconclusive: 20 µM [quencher, side channel, partial curve]

**Q.** How did the Potency turn out when `COc1ccc2cc3cc(C(=O)NCCN4CCN(c5ccccc5F)CC4)oc3nc2c1` was run?
**A.** inconclusive: 2.51 µM [quencher, side channel, full curve, poor fit]

**Q.** With `CC(C)C1Nc2ccc(C(=O)O)cc2C2C=CCC21` (stereo not drawn) as the compound, how does the Potency read?
**A.** inconclusive: 22.4 µM [quencher, side channel, single point]

**Q.** Which Potency does the source give for `Cc1ccc(-n2nnnc2CCl)cc1` here?
**A.** inconclusive: 79.4 µM [inhibitor, single point]

**Q.** `CCCNC(=O)C1CCN(S(=O)(=O)c2cccc3nonc23)CC1` was tested. Which Potency did it give?
**A.** inconclusive: 15.8 µM [quencher, partial curve]

**Q.** Which Potency does the source give for `COc1ccc(Cl)cc1NC(=S)NCc1ccccn1` here?
**A.** inconclusive: 0.0891 µM [fluorescent, side channel, full curve]

**Q.** Which Potency does the source give for `Cc1cc(=O)n(C)c(=O)n1CCCCCOc1cccc([N+](=O)[O-])c1` here?
**A.** inconclusive: 17.8 µM [quencher, side channel, partial curve]

**Q.** For `S=C(Nc1ccc2cn[nH]c2c1)Nc1ccccc1Cl`, which Potency is on record?
**A.** inconclusive: 0.501 µM [quencher, side channel, full curve]

**Q.** `COc1ccc(C/C(N)=N/OC(=O)c2cccc([N+](=O)[O-])c2)cc1` was tested. Which Potency did it give?
**A.** inconclusive: 10 µM [quencher, partial curve]

**Q.** Which “activity change, negative = inhibition” value does the source give for `CCOc1ccc(NC(=O)c2nc(SCC)ncc2Cl)cc1` here?
**A.** inactive: -14.6%

**Q.** With `O=S(=O)(c1ccc2oc3ccccc3c2c1)N1CCOCC1` as the compound, how does the Potency read?
**A.** inconclusive: 39.8 µM [inhibitor, single point]

**Q.** `Cc1ccccc1Cn1nc(C)c(NC(=O)c2cc3nc(-c4ccco4)cc(C(F)(F)F)n3n2)c1C` was tested. Which Potency did it give?
**A.** inconclusive: 20 µM [quencher, side channel, single point]

**Q.** `O=[N+]([O-])c1cccc(S(=O)(=O)N/N=C/c2ccc(O)cc2)c1` was tested. Which Potency did it give?
**A.** inconclusive: 11.2 µM [quencher, side channel, partial curve]

**Q.** With `Cc1nsc2nc3c(F)c(F)c(F)c(F)c3cc12` as the compound, how does the Potency read?
**A.** inconclusive: 8.91 µM [quencher, side channel, partial curve]
